Test results: the RNAGym collection of RNA variant scans (doi:10.1073/pnas.2313332121)
Variants at the floor of the assay are shown more often than the library holds them.

B1: TPR 5TU (parent)
chain: GGAUCUUCUCGAUCUAACAAAAAAGACAAAUCUGCCACAAAGCUUGAGAGCAUCUUCGGAUGCAGAGGCGGCAGCCUUCGGUGGCGCGAUAGCGCCAACGUUCUCAACUAUGACACGCAAAACGCGUGCUCCGUUGAAUGGAGUUUAUCAUG

Variants of: B1
Assay: polymerase ribozyme fitness, log enrichment relative to wild type (log ratio); higher = more active; in vitro selection for triplet polymerase activity
Method in brief: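 Mutant libraries of each subunit of a heterodimeric triplet polymerase ribozyme were built by PCR and transcribed. Each library went through one round of in vitro selection in triplicate: annealing with biotinylated primer, partner subunit and triplets, frozen incubation at −7 °C, gel excision of extended constructs, streptavidin-bead capture and RT-PCR. Input and output libraries were Illumina-sequenced; only genotypes with ≥10 input reads and ≥1 read per output were kept. Fitness is log2(genotype enrichment/wild-type enrichment), using inverse-variance-weighted replicate averages.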

Variant	polymerase ribozyme fitness (log ratio)
U53G G62A C95G	≤ -4.2
U53G G62C C93G A122U	≤ -4.2
U53G G74U G83C U101G	≤ -4.2
U53G G80C C95U	≤ -4.2
U53G G80C C116G A122U G141C	≤ -4.2
U53G G81A A115C C116U C129G U135G U146C	≤ -4.2
U53G G83U G86A U104C	≤ -4.2
U53G G84U C96G	≤ -4.2
U53G G92A U148A	≤ -4.2
U53G G92C C93A	≤ -4.2
U53G G94A G100C A115U	≤ -4.2
U53G G94U A98C	-2.12
U53G U55A	-1.92
U53G U55A G83A G112A A137C U144A	≤ -4.2
U53G U55C U56A C75G G100U C125A G141U	≤ -4.2
U53G U55G C93A A137C	≤ -4.2
U53G U56A C93A G136U	≤ -4.2
U53G U61C A120C U139G	≤ -4.2
U53G U82G G84C	≤ -4.2
C54A A64C C85A G92U A121U C125G U134G U139G	≤ -4.2
C54A A66U U144A	≤ -4.2
C54A A73U C87G C108U	≤ -4.2
C54A A73U C87U	-3.49
C54A A91C C93U G117A	≤ -4.2

Variant	polymerase ribozyme fitness (log ratio)
C54A A91U	≤ -4.2
C54A A91U C108U C116A C123A U148A	≤ -4.2
C54A A91U G100A G141C	≤ -4.2
C54A A106C	-2.06
C54A A115C	-1.87
C54A C63G C69G C76G U82C C131G	≤ -4.2
C54A C69U	-4.12
C54A C72U G88U C93U	≤ -4.2
C54A C75G A91G	≤ -4.2
C54A C76A C87G G124A	≤ -4.2
C54A C76A G84C U134A	≤ -4.2
C54A C76U A91U G141C	≤ -4.2
C54A C79G A107G A115C A142U A147U A150G	≤ -4.2
C54A C85A	≤ -4.2
C54A C85A A97U	≤ -4.2
C54A C85A U139A	≤ -4.2
C54A C85G G117U G126U A137U	≤ -4.2
C54A C85G U102C C103G A122U G126C	≤ -4.2
C54A C85G U102G	≤ -4.2
C54A C87A	-4.19
C54A C87A A121C	≤ -4.2
C54A C87A U130A	≤ -4.2
C54A C93A A97U	≤ -4.2
C54A C93G	≤ -4.2

Variant	polymerase ribozyme fitness (log ratio)
C54A C93G A115U	≤ -4.2
C54A C93G U135G	≤ -4.2
C54A C95U	-2.22
C54A C95U A106C	-2.19
C54A C96G A97C G143C	≤ -4.2
C54A C96G C105U U144C	-2.85
C54A C105U A121G	-0.876
C54A C118A	-1.5
C54A G58A A91U C95A	≤ -4.2
C54A G58C C79A	≤ -4.2
C54A G58C C95G C108A	≤ -4.2
C54A G58C G84U G94U C114G C116U	≤ -4.2
C54A G59A C63U G88U A107U U145A	≤ -4.2
C54A G59A C87U	-1.95
C54A G62A A91C A110G	≤ -4.2
C54A G65C C93G	≤ -4.2
C54A G65U C76A G81A C108G U145A	≤ -4.2
C54A G68C A91C C93U A122U	≤ -4.2
C54A G70A	-3.79
C54A G70A C95U A120G	-3.62
C54A G70C C108U C123U U134C	≤ -4.2
C54A G70C G88A C93G U134A U146A	≤ -4.2
C54A G70U G94A	-4.02
C54A G83C G117A U151G	≤ -4.2

Variant	polymerase ribozyme fitness (log ratio)
C54A G83U	-1.19
C54A G86U A106U A142C U148C	≤ -4.2
C54A G92A G126U	-3.3
C54A G94U C123G C125A U134C	-3.75
C54A G126U C131G	≤ -4.2
C54A G141U A142C	≤ -4.2
C54A U55A A60U	-1.37
C54A U55A U56A C96A G141C	-4.08
C54A U55C C79A G86C C103G A147C	≤ -4.2
C54A U55G G83A U102C C108G G126A	≤ -4.2
C54A U56A	-1.31
C54A U56A C93A A98U A138C U151G	≤ -4.2
C54A U56G C95A A120G	-1.33
C54A U56G U77G G86A G88C	≤ -4.2
C54A U56G U78G U82G C114A U144C	≤ -4.2
C54A U61G G68C G83U A115G U127A A138U	≤ -4.2
C54A U90C C95A C114G G133A	≤ -4.2
C54A U90G C114G U127G U145C	≤ -4.2
C54A U101A	-2.39
C54A U101G C108U A115U G117U C129U G133A	≤ -4.2
C54A U109C	≤ -4.2
C54A U144A	-1.74
C54A U144G	-0.801
C54G A73G C79A U82G C87U A122U G141C	≤ -4.2

Variant	polymerase ribozyme fitness (log ratio)
C54G A89C C123G C131A	≤ -4.2
C54G A89G G92C G100A	≤ -4.2
C54G A89U A147C	-2.1
C54G A89U C95U A97C	-2.48
C54G A91C A98G A106U C108A	≤ -4.2
C54G A91C U101G C116U A137C G143U U145A	≤ -4.2
C54G A97C G124A	-0.735
C54G A97C U101G U135G	≤ -4.2
C54G A147C	-1.47
C54G C57A C85A G92A G126A	≤ -4.2
C54G C57A G74A A91C C95U C132A	≤ -4.2
C54G C69G G83A C87G A110U U111C	≤ -4.2
C54G C69U G74C C85U	≤ -4.2
C54G C72A A115U	≤ -4.2
C54G C75G C87A	≤ -4.2
C54G C75G G86U G92C G124U C125A A137C U151C	≤ -4.2
C54G C75U	-1.86
C54G C75U G94A	-1.51
C54G C76A C85A G143A	≤ -4.2
C54G C76A C85G	-2.78
C54G C76G A89U C93A A113G C116U	≤ -4.2
C54G C76U U77C C87A G126U	≤ -4.2
C54G C79G C85U G117A G136U A150G	≤ -4.2
C54G C85U C99G	-3.45

Variant	polymerase ribozyme fitness (log ratio)
C54G C85U G86A U111C	≤ -4.2
C54G C85U U90A	≤ -4.2
C54G C87U	-3.59
C54G C87U U90A	≤ -4.2
C54G C87U U101G A121C C149G	≤ -4.2
C54G C93A	-4.19
C54G C93A C103U	≤ -4.2
C54G C93G	≤ -4.2
C54G C93G U104G A106U A137U A142C	≤ -4.2
C54G C95U U127G	≤ -4.2
C54G C96U A98G	-1.19
C54G C108G C114A G143U	≤ -4.2
C54G C108U	-4.19
C54G C114U G143C	-4.16
C54G G58C A122G G124U	-2.2
C54G G59C G83U C87U G94A U102C U148G	≤ -4.2
C54G G62C C76U G83U A115C	≤ -4.2
C54G G62U A73G G86C	≤ -4.2
C54G G68U	≤ -4.2
C54G G81C A107U A113C A119U	≤ -4.2
C54G G83A A91U	≤ -4.2
C54G G83A C96U A110G C132U A142C	≤ -4.2
C54G G83A U102C	≤ -4.2
C54G G83C A97U A98U	-2.8

Variant	polymerase ribozyme fitness (log ratio)
C54G G84A	-1.74
C54G G84U C85G U134G	≤ -4.2
C54G G88C	≤ -4.2
C54G G88C A142C	≤ -4.2
C54G G88C A142U	≤ -4.2
C54G G88C G112U	≤ -4.2
C54G G92C A106G	-2.99
C54G G94A C108A C125U	≤ -4.2
C54G G133U U144G A150U U151G	≤ -4.2
C54G U55A C108G A122U	≤ -4.2
C54G U55A G58A C99G C132A	≤ -4.2
C54G U55A G70U G81C C87U G94C C96A C105A A120C	≤ -4.2
C54G U55C C85U U90A G128U	≤ -4.2
C54G U56A C57A G81U C93U	-0.912
C54G U56A C87U C93A C132A	≤ -4.2
C54G U77A C125G	≤ -4.2
C54G U90C G94A C96G G128C G141U	≤ -4.2
C54G U90G	≤ -4.2
C54G U130G	≤ -4.2
C54U A60C C75A A91U C96U A97G A107C G136A A137U	≤ -4.2
C54U A60C C99U	-3.17
C54U A64G C116G U139G	≤ -4.2
C54U A66G C96A G136A	≤ -4.2
